Results published in patent publication US20050282943A1, “Solubilized additive composition comprising acidic and basic constituents” (INVISTA NORTH AMERICA S.A R.L., priority 2004, published 2005).
Blank lines part the entries; values can stand above or below the compound they belong to.

How the values were obtained:
[1] = Dissolution of water insoluble additive in demineralized water on adding a counterpart salt forming species (visual); conditions: for behaviour of the additive in demineralized water alone: before any counterpart salt forming species is added; for Comments: 0.01 mol Nylostab SEED in 24 g demineralized water, 22° C.
[2] = Dissolution of additive salt in water / caprolactam solvent medium (visual); assay type: physicochemical; conditions: Nylostab SEED + isophthalic acid; solution also 20 w % Caprolactam (Example 4)
Experimental: Caprolactam (4.43 g) was dissolved in 11.6 g demineralized water. […] The solution was about 20 w % Nylostab SEED and 20 w % Caprolactam.

[3] = 0.01 mol additive in demineralized water, adipic acid 0.01 mol in total (Chimassorb 944: 0.015 mol)

dissolution (observation) [1, 3]: wetted out but did not dissolve | dissolution (observation) ([1]; further addition of adipic acid and heating to the boil (Comparative Example 6)): failed to dissolve the Tinuvin 144
Structure (SMILES): CCCCC(Cc1cc(C(C)(C)C)c(O)c(C(C)(C)C)c1)(C(=O)OC1CC(C)(C)N(C)C(C)(C)C1)C(=O)OC1CC(C)(C)N(C)C(C)(C)C1 [Tinuvin 144]
behaviour of the additive in demineralized water alone [1]: did not wet out and floated on the surface of the water

dissolution (observation) [1, 3]: still did not dissolve
Structure (SMILES): CC1(C)CC(OC(=O)CCCCCCCCC(=O)OC2CC(C)(C)NC(C)(C)C2)CC(C)(C)N1 [Tinuvin 770]
dissolution (observation) ([1]; 0.01 mol additive in demineralized water, first addition of adipic acid 0.005 mol): thickened and became gel like, but the Tinuvin 770 did not dissolve

additive content of solution [2]: about 20 w % | Comments ([1]; total adipic acid added 0/0 grams/mols): White suspension | Comments ([1]; total adipic acid added 0.45/0.003 grams/mols): White suspension but getting | Comments ([1]; total adipic acid added 0.60/0.004 grams/mols): White suspension but getting | Comments ([1]; total adipic acid added 0.75/0.005 grams/mols): White suspension but getting | Comments ([1]; total adipic acid added 0.90/0.006 grams/mols): White suspension but getting | Comments ([1]; total adipic acid added 1.05/0.007 grams/mols): White suspension but getting | Comments ([1]; total adipic acid added 1.20/0.008 grams/mols): White suspension but getting | Comments ([1]; total adipic acid added 1.35/0.009 grams/mols): Translucent, almost all solids | Comments ([1]; total adipic acid added 1.50/0.010 grams/mols): Clear solution. | dissolution (observation) ([1]; Nylostab SEED 0.44 g + 3,3-thiodipropionic acid 0.18 g in 2.5 g demineralized water (Example 5)): rapidly dissolved | additive content of final solution ([1]; Nylostab SEED + 3,3-thiodipropionic acid in demineralized water (Example 5)): about 14 w % | dissolution (observation) ([1]; Nylostab SEED + Irganox 1310, after an additional 2.5 g demineralized water (Comparative Example 2)): failed to dissolve the solid | additive content of final solution ([1]; Nylostab SEED + hydrochloric acid in 5 g demineralized water (Example 6)): about 8 w % | dissolution (observation) ([1]; Nylostab SEED + hydrochloric acid, after an additional 2.5 g demineralized water (Example 6)): dissolve the solid | dissolution (observation) ([1]; Nylostab SEED + sulphuric acid, after an additional 2.5 g demineralized water (Comparative Example 3)): failed to dissolve the solid | additive content of final solution ([1]; Nylostab SEED + terephthalic acid (1:1 mol) in demineralized water (Example 3)): about 15 w %
Structure (SMILES): CC1(C)CC(NC(=O)c2cccc(C(=O)NC3CC(C)(C)NC(C)(C)C3)c2)CC(C)(C)N1 [Nylostab SEED, N,N′-bis(2,2,6,6-tetramethyl-4-piperidinyl)-1,3-benzenedicarboxamide]
dissolution (observation) ([1]; Nylostab SEED 0.001 mol + 35% hydrochloric acid 0.002 mol in 2.5 g demineralized water (Example 6)): after a few minutes a white precipitate formed | dissolution (observation) ([1]; Nylostab SEED 0.001 mol + Irganox 1310 0.002 mol in 2.5 g demineralized water (Comparative Example 2)): after a few minutes a white precipitate formed | dissolution (observation) ([1]; Nylostab SEED 0.001 mol + sulphuric acid 0.001 mol in 2.5 g demineralized water (Comparative Example 3)): after a few minutes a white precipitate formed | dissolution (observation) ([1]; Nylostab SEED + isophthalic acid (1:1 mol) in demineralized water (Comparative Example 1)): a few minutes later a white suspension formed

dissolution (observation) [1, 3]: gradually became a single phase system | additive content of final solution ([1]; Tinuvin 765 + adipic acid (1:1 mol) in 7.32 g demineralized water (Example 7)): about 37 w % | behaviour of the additive in demineralized water alone [1]: a two phase liquid-liquid system formed
Structure (SMILES): CN1C(C)(C)CC(OC(=O)CCCCCCCCC(=O)OC2CC(C)(C)N(C)C(C)(C)C2)CC1(C)C [Tinuvin 765, Bis(1,2,2,6,6-pentamethyl-4-piperidinyl) sebacate]

dissolution (observation) ([1]; Example 8 solution after a further 2 g of demineralized water): formation of a white precipitate
Structure (SMILES): CC(C)(C)c1cc(CCC(=O)O)cc(C(C)(C)C)c1O [Irganox 1310, 3-(3,5-di-t-butyl-4-hydroxyphenyl)propionic acid]
